This note sets out measurements from the supplement of paper PMC11417369.

± gives the standard deviation of the averaged measurements. Some of the results follow.

The subject of the assay is PfAP2-LT AP2 domain (GST-tagged). Kind of assay: gcPBM binding intensity (ln(normalized median fluorescence intensity)); higher = stronger DNA binding. The method, boiled down:
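DNA-binding domains from P. falciparum, fused to GST and produced in E. coli, were put on an Agilent 4 × 180k double-stranded probe array for 1 h in 1× PBS holding 1% milk, 0.2 mg/ml BSA, 0.5% salmon testes DNA and 0.03% Triton X-100. Probes were primer-extended, 36 bp long and drawn from intergenic genomic regions, with negative controls included. After Alexa488 anti-GST antibody detection and a 488 nm scan, binding intensity was set as the highest Masliner-normalised natural-log median intensity across replicate spots of either probe orientation.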
Turning to “AATAATAAAATAAAGGCATGCACAATATGCTATAAA [TGCATGCA_site645]”, the “gcPBM binding intensity (ln)” value amounted to 9.07 ± 0.5.

With “TAAAATATATAAAACTGTACATTTTAAAGGCACAAC [XGTACX_site8342]”, the “gcPBM binding intensity (ln)” value came to 8.87 ± 0.37.

For “TATGTATCAAATAAATGTACATATATATATATATAT [XGTACX_site2189]”, the “gcPBM binding intensity (ln)” value amounted to 9.39 ± 0.26.

For “AATTAAAATAGTAATACACACTTCATAGGAAATGAT [CACACA_site5045]”, the “gcPBM binding intensity (ln)” value is 8.84 ± 0.4.

“ATGAAAAAATTTAAATGTACATTACATATATTTATT [XGTACX_site2524]”: the “gcPBM binding intensity (ln)” value was determined as 8.59 ± 0.45.

For “TAATATTATATTATATGTACATAACAAATTATATTT [XGTACX_site4296]”, the “gcPBM binding intensity (ln)” value is 8.61 ± 0.49.

Regarding “TTTTTTTCTCTTTTTATTACAAAAAGGGTTTATATA [TGCATGCA_negctrl_site75]”, the “gcPBM binding intensity (ln)” value is 8.39 ± 0.61.

For the sequence “ATTATATTAATATATATATATATATATATAATAATA [CACACA_negctrl_site437]”, the “gcPBM binding intensity (ln)” value amounted to 8.69 ± 0.3.

With “ATGAGTAACATATTTGTGCACATATGGTTATTTTTA [GTGCAC_site9541]”, the “gcPBM binding intensity (ln)” value was determined as 8.9 ± 0.33.

“AAAAAAAATTCCAGTACACACAATAATACTAAAAAT [CACACA_site2801]”: the “gcPBM binding intensity (ln)” value was 9.02 ± 0.41.

For the sequence “AAAAATTACAAAAATGCATGTACTATTCATATTTTT [TGCATGCA_site918]”, the “gcPBM binding intensity (ln)” value worked out at 8.8 ± 0.52.

In the case of “ATGCATATAATTATATGTACATATAAGAAATATATA [XGTACX_site517]”, the “gcPBM binding intensity (ln)” value came to 8.96 ± 0.39.

Turning to “CATTTATTATGATAAAGTACTTAAATTAATAGATAA [XGTACX_site3566]”, the “gcPBM binding intensity (ln)” value is 8.38 ± 0.51.

On to “ATAAAAAACAGTGGCACACATTATGTATCCACCTTT [CACACA_site5958]”, for which the “gcPBM binding intensity (ln)” value came to 8.94 ± 0.44.

Consider “CATATAAAGATATGAACACACAAAAAGAATATTTCC [CACACA_site6811]”, for which the “gcPBM binding intensity (ln)” value was 9.02 ± 0.43.

Take “AATAATAAAAAATACACACACATATAAATATATTAC [CACACA_site7597]”: the “gcPBM binding intensity (ln)” value was 9.51 ± 0.3.

Turning to “AGGACACATATATGCAAAAAAAAAAAAAAAAAAAAA [TGCATGCA_negctrl_site427]”, the “gcPBM binding intensity (ln)” value was found to be 8.41 ± 0.59.

With “TTCCGAACGACCTAAAGTACATGTATTTCAACTTTT [XGTACX_site1220]”, the “gcPBM binding intensity (ln)” value came out at 8.91 ± 0.47.

On to “TAGTGTATGATAATATGTACATACATTTATATAATA [XGTACX_site6330]”, for which the “gcPBM binding intensity (ln)” value turned out to be 8.77 ± 0.47.

“TCTTTTTTTTTTTTTTTTTCTTCTTCTCAATATAAA [GTGCAC_negctrl_site303]”: the “gcPBM binding intensity (ln)” value stood at 8.35 ± 0.47.

As for “TTTTATAAAAAAACTATAAAAATATATAGTACTTAA [CACACA_negctrl_site440]”, the “gcPBM binding intensity (ln)” value was 8.19 ± 0.38.

“TATGCACACAATATATGTACTTATATATTTTAAAAA [XGTACX_site5482]”: the “gcPBM binding intensity (ln)” value was 8.91 ± 0.47.

On to “CATAATATGTGGACTTTACACACTTGTTTTAAAATT [CACACA_site819]”, for which the “gcPBM binding intensity (ln)” value came to 8.76 ± 0.42.

On to “TGAGATAACAAAAGTTGTACTTTTTTTTTTTTTTTT [XGTACX_site3004]”, for which the “gcPBM binding intensity (ln)” value came to 8.53 ± 0.29.

As for “TTTAATAAAAAAATTAAAAATAAAGAAAAAAAAAAA [CACACA_negctrl_site1464]”, the “gcPBM binding intensity (ln)” value amounted to 8.18 ± 0.58.

Regarding “AAATATATATAAAACTCACACATTATCTTATAACCA [CACACA_site5268]”, the “gcPBM binding intensity (ln)” value was 8.84 ± 0.35.

As for “TATGTGTATACAATATGTACATATGTTAACTTGTAT [XGTACX_site872]”, the “gcPBM binding intensity (ln)” value was determined as 8.88 ± 0.38.

With “AAAAAATAATATTGTACACACATAAATTCTTTGTCA [CACACA_site5187]”, the “gcPBM binding intensity (ln)” value amounted to 8.99 ± 0.42.

For the sequence “ATGTATGGAAATTTTACACACAAGAGTAGTTTAAAA [CACACA_site1710]”, the “gcPBM binding intensity (ln)” value amounted to 8.97 ± 0.44.

For the sequence “GCATATGTTCAGCGTTGTACATAAAAAAAAACATAT [XGTACX_site5974]”, the “gcPBM binding intensity (ln)” value worked out at 8.82 ± 0.44.

Turning to “TTAAATAAATATAAGTGTACATACACACTTTACAAT [XGTACX_site6348]”, the “gcPBM binding intensity (ln)” value came out at 8.77 ± 0.42.

Take “GCGTAATCTATTTGCACACTTATTTGTTCTTAAAAA [CACACA_site672]”: the “gcPBM binding intensity (ln)” value worked out at 8.91 ± 0.33.

Turning to “GTTTAAAGTTGAACAAGTACACATTTATATAAGGCA [XGTACX_site351]”, the “gcPBM binding intensity (ln)” value was 8.67 ± 0.48.

Regarding “TTTATTTATTACTAAAGTACTAAATCATATAATTAT [XGTACX_site3654]”, the “gcPBM binding intensity (ln)” value amounted to 8.4 ± 0.46.

Take “TTTTGAAAGTTTTTGTGTCCACATATATTTATATAT [XGTACX_site6563]”: the “gcPBM binding intensity (ln)” value was determined as 8.94 ± 0.44.

In the case of “ATATCATAAGTAGAAACACACAATTAGATTTTTTCC [CACACA_site2353]”, the “gcPBM binding intensity (ln)” value came out at 8.79 ± 0.47.

Turning to “ATTATAAACCAGAATGCATGTAGATGAATCTTTTCT [TGCATGCA_site284]”, the “gcPBM binding intensity (ln)” value amounted to 8.8 ± 0.45.

Take “TAAAAATATAAAACATGTACATATATGCATATATTT [XGTACX_site8093]”: the “gcPBM binding intensity (ln)” value turned out to be 8.86 ± 0.48.

For the sequence “AAAAAAAATAATATTGTACACACATAAATTCTTTGT [CACACA_site8654]”, the “gcPBM binding intensity (ln)” value was 9.1 ± 0.57.

“TTTTATAAATACACACGTACGTGTGCATAACGTTTT [XGTACX_site3199]”: the “gcPBM binding intensity (ln)” value was determined as 9.28 ± 0.24.

As to “TACTTTTTAAAAATGTTTTATATAATAAAAAGATAT [CACACA_negctrl_site678]”, the “gcPBM binding intensity (ln)” value is 8.3 ± 0.51.

Regarding “CTTATATTAAAACACACACACGCACAAAACAGAAAT [CACACA_site1462]”, the “gcPBM binding intensity (ln)” value worked out at 9.88 ± 0.2.

In the case of “TAAGCCTTTCTATTATGTACTTATTAAAACATGTAG [XGTACX_site8022]”, the “gcPBM binding intensity (ln)” value stood at 8.67 ± 0.48.

Turning to “AAATTTATTTCTGTGTGTCCACAAAAAAAAATCTTT [XGTACX_site691]”, the “gcPBM binding intensity (ln)” value worked out at 8.48 ± 0.49.
